Measured values: patent US20210147571A1, “MONOCLONAL ANTIBODY TARGETING HUMAN TUMOR STEM CELLS AND USE THEREOF” (Suzhou Bojuhua Biomedical Technology Co. Ltd, priority 2017, published 2021)

Columns and labels:
Type in all cases: binding, human
Bel7402-V13 cells = assay: flow immunofluorescence, positive cells in parental and sphere cells; conditions: BEL7402 V13, Table 32
Description: (§1) The human liver cancer cell line Bel7402-V13 and MHCC97L cells were cultured for 5 days in a serum-free manner, and the Hetumomab^+ cells in the parental cells and in the cells from sphere culture were detected by viable cell flow fluorescence cytometry. […] That is, after serum-free culture, Hetumomab^+ cells of the liver cancer cell line were enriched.
(§2) As described above, four cell lines, SNU-5, BGC-823, MHCC-97L, and BEL7402 V13, were used to harvest both parental cells and tumor-stem-cell-rich sphere cells. […] The results are as follows:
(§3) According to the aforementioned method, four cell lines, SNU-5, BGC-823, MHCC-97L, and BEL7402 V13, were used to harvest both parental cells and tumor-stem-cell-rich sphere cells. […]

MHCC97L cells = assay: as above; conditions: MHCC-97L, Table 32
Description: as §1, §2, §3

BGC-823 cells = assay: as above; conditions: BGC-823, Table 32
Description: as §1, with “gastric” for “liver”, “SNU-5” for “Bel7402-V13”, “BGC-823” for “MHCC97L”, “after the” for “after”
as §2, §3

SNU-5 cells = assay: as above; conditions: SNU-5, Table 32
Description: as §1, with “gastric” for “liver”, “SNU-5” for “Bel7402-V13”, “BGC-823” for “MHCC97L”, “after the” for “after”
as §2, §3

[1] = system: Hetumomab target antigen in liver, lung, gastric cancer tissue sections; assay: immunohistochemistry of antigen-positive and negative tissue sections; conditions: Example 11

B1: Hetuzumab H5L12: humanized antibody of heavy chain version H5 (SEQ ID NO:36) and light chain version L12 (SEQ ID NO:48) (antibody)
heavy: QVTLKESGPTLVKPTQTLTLTCTFSGFSLSTSGMGVSWIRQPPGKALEWLAHIYWDDDKRYNPSLKSRLTISKDTSKNQVVLTMTNMDPVDTATYYCARSFYYYAANSFAYWGQGTLVTVSS[human IgG1 constant region left out here]
light: DIVMTQTPFSLPVTLGQPASISCRSSKSLLHSNGITYLYWFLQKPGQSPQLLIYQMSNLASGVPDRFSGSGSGTDFTLKISRVEAEDVGVYYCAQNLELYTFGQGTKVEIKRTVAAPSVFIFPPSDEQLKSGTASVVCLLNNFYPREAKVQWKVDNALQSGNSQESVTEQDSKDSTYSLSSTLTLSKADYEKHKVYACEVTHQGLSSPVTKSFNRGEC
modifications: Humanized heavy chain H5; Humanized light chain L12
With B1 the “positive rate, Parent” value (Bel7402-V13 cells) was 5.38%, the “positive rate, Sphere” value (Bel7402-V13 cells) was 8.39% and the “positive rate, Parent” value (MHCC97L cells) was 5.25%. For the same molecule, the “positive rate, Sphere” value (MHCC97L cells) was 10.61%, the “positive rate, Parent” value (BGC-823 cells) was 2.90% and the “positive rate, Sphere” value (BGC-823 cells) was 4.44%. The “positive rate, Parent” value (SNU-5 cells) was 2.63%, the “positive rate, Sphere” value (SNU-5 cells) was 4.10% and the “staining of negative tissue sections” value ([1]; 10 negative sections) was “did not stain”. For the same molecule, the “staining of target antigen-positive tissue sections” value ([1]; 10 positive sections) was “positively stain”.
